Results: the supplement of paper PMC4967469

Columns and labels:
Assay in all cases: Viability of human cancer cell lines after 72 h of drug (GDSC screen)
XMD15-27 = compound: C=CC(=O)Nc1ccc(C(=O)c2sc(Nc3ccc(N4CCN(C)CC4)cc3OC)nc2N)cc1 [XMD15-27]; conditions: top dose 10.24 µM; top dose inferred
Protocol: (§1)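 Human cancer cell lines in 384-well plates, medium with 10% serum, drug for 72 h over a 256-fold dose range (nine 2-fold or five 4-fold steps up to the top dose). Adherent lines were fixed and stained with the nucleic acid dye Syto60, suspension lines read with resazurin; signal relative to control wells, capped at 0 and 100%. One two-parameter sigmoid per drug and line, fitted in a mixed model over all curves with the slope shared within a line.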

SL 0101-1 = compound: CC(=O)O[C@@H]1[C@@H](OC(C)=O)[C@@H](O)[C@H](Oc2c(-c3ccc(O)cc3)oc3cc(O)cc(O)c3c2=O)O[C@H]1C [SL 0101-1]; conditions: top dose 10 µM; top dose inferred
Protocol: as §1

Temsirolimus = compound: CO[C@H]1C[C@@H]2CC[C@@H](C)[C@@](O)(O2)C(=O)C(=O)N2CCCC[C@H]2C(=O)O[C@H]([C@H](C)C[C@@H]2CC[C@@H](OC(=O)C(C)(CO)CO)[C@H](OC)C2)CC(=O)[C@H](C)/C=C(\C)[C@@H](O)[C@@H](OC)C(=O)[C@H](C)C[C@H](C)/C=C/C=C/C=C/1C [Temsirolimus]; conditions: top dose 0.2 µM
Protocol: as §1

Row | Cell Line | AUC (XMD15-27) | IC50 (XMD15-27) | AUC (SL 0101-1) | IC50 (SL 0101-1) | AUC (Temsirolimus) | IC50 (Temsirolimus)
1 | NCI-H520 (lung squamous cell carcinoma, adherent) | 0.978 | > 10.2 µM | 0.979 | > 10 µM | 0.891 | > 0.2 µM
2 | FU-OV-1 (ovary, adherent) | 0.978 | > 10.2 µM | 0.959 | > 10 µM | 0.905 | > 0.2 µM
3 | T84 (large intestine, adherent) | 0.989 | > 10.2 µM | 0.988 | > 10 µM | 0.987 | > 0.2 µM
4 | BE2-M17 (neuroblastoma, adherent) | 0.987 | > 10.2 µM | 0.983 | > 10 µM | 0.847 | 0.154 µM
5 | NCI-H1703 (lung adenocarcinoma, adherent) | 0.954 | > 10.2 µM | 0.982 | > 10 µM | 0.626 | 0.03 µM
6 | SNU-387 (liver, adherent) | 0.984 | > 10.2 µM | 0.984 | > 10 µM | 0.674 | 0.0411 µM
7 | IPC-298 (melanoma, adherent) | 0.98 | > 10.2 µM | 0.965 | > 10 µM | 0.694 | 0.0434 µM
8 | NCI-H524 (small cell lung carcinoma, suspension) | 0.988 | > 10.2 µM | 0.989 | > 10 µM | 0.939 | > 0.2 µM
9 | NB10 (neuroblastoma, adherent) | 0.987 | > 10.2 µM | 0.902 | > 10 µM | 0.779 | 0.0793 µM
10 | NCI-H1395 (lung adenocarcinoma, adherent) | 0.982 | > 10.2 µM | 0.969 | > 10 µM | 0.927 | > 0.2 µM
11 | EW-24 (Ewing sarcoma, semi-adherent) | 0.993 | > 10.2 µM | 0.99 | > 10 µM | 0.956 | > 0.2 µM
12 | EJM (lymphoid neoplasm, semi-adherent) | 0.985 | > 10.2 µM | 0.988 | > 10 µM | 0.89 | 0.167 µM
13 | D-283MED (medulloblastoma, adherent) | 0.991 | > 10.2 µM | 0.977 | > 10 µM | 0.943 | > 0.2 µM
14 | EMC-BAC-1 (lung adenocarcinoma, adherent) | 0.909 | > 10.2 µM | 0.975 | > 10 µM | 0.825 | 0.143 µM
15 | 201T (lung adenocarcinoma, adherent) | 0.951 | > 10.2 µM | 0.981 | > 10 µM | 0.861 | > 0.2 µM
16 | NCI-H2444 (non-small cell lung carcinoma, adherent) | 0.988 | > 10.2 µM | 0.988 | > 10 µM | 0.902 | > 0.2 µM
17 | OCI-AML2 (acute myeloid leukaemia, suspension) | 0.994 | > 10.2 µM | 0.995 | > 10 µM | 0.993 | > 0.2 µM
18 | NCI-H2227 (small cell lung carcinoma, semi-adherent) | 0.986 | > 10.2 µM | 0.986 | > 10 µM | 0.936 | > 0.2 µM

Row | Cell Line | AUC (XMD15-27) | IC50 (XMD15-27) | AUC (SL 0101-1) | IC50 (SL 0101-1) | AUC (Temsirolimus) | IC50 (Temsirolimus)
19 | HD-MY-Z (Hodgkin lymphoma, adherent) | 0.951 | > 10.2 µM | 0.986 | > 10 µM | 0.543 | 0.0164 µM
20 | ARH-77 (myeloma, suspension) | 0.959 | > 10.2 µM | 0.977 | > 10 µM | 0.987 | > 0.2 µM
21 | A427 (non-small cell lung carcinoma, adherent) | 0.985 | > 10.2 µM | 0.981 | > 10 µM | 0.774 | 0.0793 µM
22 | CAL-120 (breast, adherent) | 0.957 | > 10.2 µM | 0.933 | > 10 µM | 0.9 | > 0.2 µM
23 | M059J (glioma, adherent) | 0.985 | > 10.2 µM | 0.983 | > 10 µM | 0.688 | 0.0442 µM
24 | HuCCT1 (biliary tract, adherent) | 0.984 | > 10.2 µM | 0.966 | > 10 µM | 0.892 | > 0.2 µM
25 | SW684 (fibrosarcoma, adherent) | 0.983 | > 10.2 µM | 0.981 | > 10 µM | 0.936 | > 0.2 µM
26 | ML-2 (acute myeloid leukaemia, suspension) | 0.977 | > 10.2 µM | 0.989 | > 10 µM | 0.942 | > 0.2 µM
27 | PCI-30 (head and neck, adherent) | 0.977 | > 10.2 µM | 0.972 | > 10 µM | 0.652 | 0.0364 µM
28 | CAPAN-1 (pancreas, adherent) | 0.983 | > 10.2 µM | 0.987 | > 10 µM | 0.915 | > 0.2 µM
29 | KP-N-YN (neuroblastoma, adherent) | 0.987 | > 10.2 µM | 0.952 | > 10 µM | 0.971 | > 0.2 µM
30 | MHH-PREB-1 (B-cell leukaemia, suspension) | 0.988 | > 10.2 µM | 0.989 | > 10 µM | 0.496 | 0.0122 µM
31 | RERF-LC-MS (lung adenocarcinoma, adherent) | 0.986 | > 10.2 µM | 0.987 | > 10 µM | 0.92 | > 0.2 µM
32 | A388 (skin, adherent) | 0.983 | > 10.2 µM | 0.978 | > 10 µM | 0.773 | 0.0893 µM
33 | LC-1-sq (lung squamous cell carcinoma, adherent) | 0.984 | > 10.2 µM | 0.983 | > 10 µM | 0.874 | > 0.2 µM
34 | HCC-15 (lung squamous cell carcinoma, adherent) | 0.973 | > 10.2 µM | 0.975 | > 10 µM | 0.813 | 0.148 µM
35 | BB49-HNC (head and neck, adherent) | 0.977 | > 10.2 µM | 0.955 | > 10 µM | 0.771 | 0.11 µM

The IC50 comes from the fitted curve, where viability falls to half of the control; a limit (>, <) means that the fit lies beyond the doses tested. AUC is the area under the same curve over the 256-fold range up to the top dose, as a fraction; values near 1 show little effect. For part of these data: Where the top dose is marked as inferred, it was derived from the fitted curves, not read from the paper.
